The structures appear in SMILES notation. About 540 (0.36%) of roughly 150,000 compounds showed an effect of 50% or more. Some of the results follow.

In general, % Inhibition refers to the drop in the measured response relative to a control, in per cent.

For the assay, the system named is Plasmodium falciparum. In words: Primary screen in NF54 nanoGlo assay, in single point, at 2uM, 72h; a lower Z score goes with more inhibition. Format: functional, Erythrocyte. The settings on record: timepoint 72 hour.
As for `CC(C)[C@H](NC(=O)c1ccccc1F)C(=O)Nc1ccc(F)c(N2CCCNC2=O)c1`, the “% Inhibition” value was -7% and the Z score is recorded as 1.04.

Take `O=C(Cn1cccnc1=O)NC[C@@H](CO)Cc1ccco1`: the “% Inhibition” value is -8% and the Z score was found to be 1.54.

`C[C@]1(c2ccc(Br)cc2)NC(=O)N(CN2CCC(C(=O)N3CCCCCC3)CC2)C1=O`: the “% Inhibition” value is listed as -2% and the Z score was 0.21.

Turning to `CN(C)c1cc(C(=O)N[C@H]2CCc3nccn3C2)ccn1`, the “% Inhibition” value was -14% and the Z score is listed as 3.02.

Consider `CCn1c(=O)sc2cc(NC(=O)Cc3cccs3)ccc21`, for which the “% Inhibition” value is recorded as 4% and the Z score is given as -0.45.

Turning to `Cc1ccccc1OCC(=O)NC[C@H]1CCCN(C(=O)c2cccc(O)n2)C1`, the “% Inhibition” value is listed as -8% and the Z score amounted to 1.47.

As to `COc1ccc(C2CN(C(=O)C3CCCC3)CC2C(=O)N2CCCC2)c(OC)c1` (configuration not stated), the “% Inhibition” value is recorded as -6% and the Z score is reported as 0.53.

As for `O=C(NCc1nnc2ccccn12)NC1CC1c1cccc(F)c1` (configuration not stated), the “% Inhibition” value is on record as -6% and the Z score is reported as 0.65.

On to `Cc1cc(C(=O)N[C@@H]2COCC[C@@H]2OCc2ccccc2)c(C)n1C`, for which the “% Inhibition” value was -7% and the Z score turned out to be 1.44.

`CC(C)[C@H](NS(=O)(=O)N1CCOCC1)c1nccn1C`: the “% Inhibition” value was -10% and the Z score is reported as 1.72.

On to `CN(Cc1ccccc1)C(=O)C1C(c2ccc(NC(=O)c3ccc(F)cc3)cc2)OC(=O)N1Cc1ccccc1` (configuration not stated), for which the “% Inhibition” value is 6% and the Z score is reported as -0.74.

Consider `COCc1cc(C(=O)N[C@H](c2ccccc2)C2CCOCC2)no1`, for which the “% Inhibition” value is recorded as 38% and the Z score was -5.54.

`O=C(c1ccc2c(c1)OCO2)[C@H]1CCCN(C(=O)CCOc2ccccc2)C1`: the “% Inhibition” value is listed as 3% and the Z score is listed as -0.58.

As for `O=C(NCc1ccc2c(c1)OCO2)N1CCN(c2nccs2)C(=O)C1`, the “% Inhibition” value is on record as 14% and the Z score was -1.81.

As for `C[C@H](NC(=O)N(C)Cc1nccs1)c1nnc(N)s1`, the “% Inhibition” value is -5% and the Z score is 1.

For `COCCCN(CC(=O)N(Cc1ccccc1)Cc1cccn1Cc1cccc(OC)c1)C(=O)c1ccc(Cl)cc1`, the “% Inhibition” value was -11% and the Z score is given as 1.26.

With `COc1cccc2c1OC[C@@H](C(=O)N(Cc1nccs1)C1CC1)C2`, the “% Inhibition” value was -11% and the Z score is 1.48.

Turning to `Cn1ccc([C@H]2CCCN(C(=O)Cc3c(F)cccc3Cl)C2)n1`, the “% Inhibition” value was -13% and the Z score was 1.48.

Take `CN(Cc1ccccc1)[C@H]1CCOC2(CCN(C(=O)c3ccoc3)CC2)C1`: the “% Inhibition” value was -15% and the Z score is on record as 1.93.

`Cc1cc(C)nc(NC(=O)N(C)CCCn2ccnc2)c1`: the “% Inhibition” value is -3% and the Z score amounted to 0.39.

For the compound `O=C(NCC(=O)N1CCc2ccccc2C1)c1ccco1`, the “% Inhibition” value is -18% and the Z score came out at 3.42.

On to `CCc1cc(C#N)c(NC(=O)CCOC2CCOCC2)s1`, for which the “% Inhibition” value was -17% and the Z score is given as 3.4.

Turning to `CCCc1occc1C(=O)N1CCO[C@@H](CF)C1`, the “% Inhibition” value was -1% and the Z score is recorded as 0.19.

As for `COCCn1ccc(NC(=O)NCc2sc(C)nc2C)n1`, the “% Inhibition” value is recorded as -3% and the Z score is reported as 0.67.

Regarding `CC(C)Oc1ccc(C(=O)N2[C@@H](C)CCC2(C)C)nc1`, the “% Inhibition” value was -13% and the Z score was determined as 1.93.

Consider `Cc1cnc(NC(=O)[C@H]2CCCN(c3ccc4nnnn4n3)C2)s1`, for which the “% Inhibition” value was 4% and the Z score is given as -0.46.

For `Cc1ccc(N2C[C@H](Cc3ccccc3)N(C(=O)c3ccc[nH]3)CC2=O)cc1`, the “% Inhibition” value is -4% and the Z score is 0.84.

Take `O=C(c1cc(Cl)cc2c1OCC2)N1CCC(OC2CCC2)CC1`: the “% Inhibition” value is listed as -5% and the Z score came to 0.66.

For `CCc1nn(C)c2[nH]nc(NC(=O)C3CCN(CC(F)F)CC3)c12`, the “% Inhibition” value is on record as 5% and the Z score is -0.82.

For the compound `CC(C)[C@H]1C(=O)NCCN1CCOc1ccc(C(=O)O)cc1Cl`, the “% Inhibition” value is 0% and the Z score worked out at 0.01.

`CCCNS(=O)(=O)c1ccc(C(=O)N2[C@@H]3CC[C@H]2C[C@@H](OC)C3)cc1`: the “% Inhibition” value is listed as 1% and the Z score is on record as -0.09.

In the case of `CC(=O)N(CCc1noc(C2CCC2)n1)[C@H]1CCN(Cc2cn(C)c3ccccc23)C1`, the “% Inhibition” value was -7% and the Z score is on record as 0.81.

`O=C(Nc1nc(-c2ccncc2)ns1)c1ccncc1Cl`: the “% Inhibition” value is 7% and the Z score is reported as -0.9.

Turning to `COc1ccc2c(=O)c(C(=O)Nc3n[nH]c(C(C)C)n3)c[nH]c2c1`, the “% Inhibition” value turned out to be 30% and the Z score is reported as -3.91.

Consider `O=C(NCc1noc(C2CC2)n1)N1CCC[C@H](c2ccc(F)c(F)c2)C1`, for which the “% Inhibition” value was -7% and the Z score came out at 1.17.

Consider `O=C(Nc1ccc(Cn2ccnc2)cc1)N1CCC[C@H](c2cc(F)ccc2F)C1`, for which the “% Inhibition” value stood at 7% and the Z score is -0.64.

Regarding `CN1CCN([C@H]2CC(=O)N(c3ccc4c(c3)OCCO4)C2=O)CC1`, the “% Inhibition” value is -8% and the Z score is recorded as 1.15.

As for `CC1=C(CN(C)[C@@H](C)CC(N)=O)C(C)(C)CCC1`, the “% Inhibition” value is recorded as -2% and the Z score is 0.24.

With `CC1CN(CC(=O)Nc2cccc3nonc23)CC(C)O1` (configuration not stated), the “% Inhibition” value was 7% and the Z score is -1.14.

Regarding `COc1ccc(-c2cc(N)n(S(=O)(=O)c3cccc4nsnc34)n2)c(OC)c1`, the “% Inhibition” value was -6% and the Z score worked out at 0.97.

For the compound `Cn1cccc1C(=O)N1C[C@@H]2C[C@H](NC(=O)c3cccs3)[C@H]1C2`, the “% Inhibition” value stood at 30% and the Z score is reported as -3.44.

As to `COCC(=O)N[C@@H]1CC[C@H]2CCOc3ccccc3C(=O)N3CCN(Cc4ccc(F)cc4)C[C@H]3C(=O)NC[C@H]1O2`, the “% Inhibition” value is -13% and the Z score is recorded as 1.96.

`O=C(O)[C@H]1C[C@@H]1C(=O)Nc1ccnn1Cc1ccc(Cl)c(F)c1`: the “% Inhibition” value is on record as 1% and the Z score is listed as -0.26.

Take `Cc1ccc(NC(=O)CCNS(=O)(=O)c2ccc3nc(O)oc3c2)cc1N(C)C`: the “% Inhibition” value is given as -22% and the Z score is reported as 2.21.

For `Cc1cccc(-c2[nH]ncc2CN2CCC[C@H](CN3CCOCC3)C2)c1`, the “% Inhibition” value is -11% and the Z score worked out at 1.68.

In the case of `CC[C@@H](CCNS(=O)(=O)c1cnn(C(F)F)c1)n1nc(C(F)(F)F)cc1C`, the “% Inhibition” value was determined as 7% and the Z score is recorded as -0.85.

On to `CC(=O)Nc1ccc(CN2C[C@@H]3CC[C@H]2CN(C2CCOCC2)C3)cc1`, for which the “% Inhibition” value was -2% and the Z score is 0.36.

For the compound `CCCCO[C@@H]1O[C@H](CO)[C@@H](OC)[C@H](OC)[C@H]1NC(C)=O`, the “% Inhibition” value is listed as -4% and the Z score worked out at 0.52.

Turning to `CCCC(=O)N1CCC(C(=O)NC2CCCCCC2c2ccccc2C(F)(F)F)CC1` (configuration not stated), the “% Inhibition” value is reported as 29% and the Z score is -3.97.

Take `O=C(N/C(=N/c1ccccc1)N1CCN(c2ccc(F)cc2)CC1)c1ccccc1`: the “% Inhibition” value came out at 1% and the Z score is -0.18.

For the compound `Nc1nc(CCNC(=O)C2(N3CCOCC3)CCCCC2)n[nH]1`, the “% Inhibition” value is -10% and the Z score stood at 1.76.

The values above are taken from ChEMBL document CHEMBL4888484, “Replenishing the malaria drug discovery pipeline: Screening and hit evaluation of the MMV Hit Generation Library 1 (HGL1) against asexual blood stage Plasmodium falciparum ,using a nano luciferase reporter read-out” (2022).
